The assay concerns the target FLAG-tagged Tor2 (catalytic subunit of TORC1) (Schizosaccharomyces pombe) (UniProt Q9Y7K2). Put plainly: co-IP; anti-FLAG immunoprecipitation from S. pombe extracts, immunoblot with anti-GFP; cells grown vegetatively in EMM2 for 24 h at 26°C, and G0 phase cells after 24 h nitrogen starvation at 26°C; extraction buffer 25 mM HEPES–KOH pH 7.5, 200 mM NaCl, 10% glycerol, 0.1% NP-40, 1 mM PMSF; non-FLAG-tagged strains as control.

Protein sequences, listed by entry. Tags and fused reporters are not part of them.
UniProt Q9Y7K2: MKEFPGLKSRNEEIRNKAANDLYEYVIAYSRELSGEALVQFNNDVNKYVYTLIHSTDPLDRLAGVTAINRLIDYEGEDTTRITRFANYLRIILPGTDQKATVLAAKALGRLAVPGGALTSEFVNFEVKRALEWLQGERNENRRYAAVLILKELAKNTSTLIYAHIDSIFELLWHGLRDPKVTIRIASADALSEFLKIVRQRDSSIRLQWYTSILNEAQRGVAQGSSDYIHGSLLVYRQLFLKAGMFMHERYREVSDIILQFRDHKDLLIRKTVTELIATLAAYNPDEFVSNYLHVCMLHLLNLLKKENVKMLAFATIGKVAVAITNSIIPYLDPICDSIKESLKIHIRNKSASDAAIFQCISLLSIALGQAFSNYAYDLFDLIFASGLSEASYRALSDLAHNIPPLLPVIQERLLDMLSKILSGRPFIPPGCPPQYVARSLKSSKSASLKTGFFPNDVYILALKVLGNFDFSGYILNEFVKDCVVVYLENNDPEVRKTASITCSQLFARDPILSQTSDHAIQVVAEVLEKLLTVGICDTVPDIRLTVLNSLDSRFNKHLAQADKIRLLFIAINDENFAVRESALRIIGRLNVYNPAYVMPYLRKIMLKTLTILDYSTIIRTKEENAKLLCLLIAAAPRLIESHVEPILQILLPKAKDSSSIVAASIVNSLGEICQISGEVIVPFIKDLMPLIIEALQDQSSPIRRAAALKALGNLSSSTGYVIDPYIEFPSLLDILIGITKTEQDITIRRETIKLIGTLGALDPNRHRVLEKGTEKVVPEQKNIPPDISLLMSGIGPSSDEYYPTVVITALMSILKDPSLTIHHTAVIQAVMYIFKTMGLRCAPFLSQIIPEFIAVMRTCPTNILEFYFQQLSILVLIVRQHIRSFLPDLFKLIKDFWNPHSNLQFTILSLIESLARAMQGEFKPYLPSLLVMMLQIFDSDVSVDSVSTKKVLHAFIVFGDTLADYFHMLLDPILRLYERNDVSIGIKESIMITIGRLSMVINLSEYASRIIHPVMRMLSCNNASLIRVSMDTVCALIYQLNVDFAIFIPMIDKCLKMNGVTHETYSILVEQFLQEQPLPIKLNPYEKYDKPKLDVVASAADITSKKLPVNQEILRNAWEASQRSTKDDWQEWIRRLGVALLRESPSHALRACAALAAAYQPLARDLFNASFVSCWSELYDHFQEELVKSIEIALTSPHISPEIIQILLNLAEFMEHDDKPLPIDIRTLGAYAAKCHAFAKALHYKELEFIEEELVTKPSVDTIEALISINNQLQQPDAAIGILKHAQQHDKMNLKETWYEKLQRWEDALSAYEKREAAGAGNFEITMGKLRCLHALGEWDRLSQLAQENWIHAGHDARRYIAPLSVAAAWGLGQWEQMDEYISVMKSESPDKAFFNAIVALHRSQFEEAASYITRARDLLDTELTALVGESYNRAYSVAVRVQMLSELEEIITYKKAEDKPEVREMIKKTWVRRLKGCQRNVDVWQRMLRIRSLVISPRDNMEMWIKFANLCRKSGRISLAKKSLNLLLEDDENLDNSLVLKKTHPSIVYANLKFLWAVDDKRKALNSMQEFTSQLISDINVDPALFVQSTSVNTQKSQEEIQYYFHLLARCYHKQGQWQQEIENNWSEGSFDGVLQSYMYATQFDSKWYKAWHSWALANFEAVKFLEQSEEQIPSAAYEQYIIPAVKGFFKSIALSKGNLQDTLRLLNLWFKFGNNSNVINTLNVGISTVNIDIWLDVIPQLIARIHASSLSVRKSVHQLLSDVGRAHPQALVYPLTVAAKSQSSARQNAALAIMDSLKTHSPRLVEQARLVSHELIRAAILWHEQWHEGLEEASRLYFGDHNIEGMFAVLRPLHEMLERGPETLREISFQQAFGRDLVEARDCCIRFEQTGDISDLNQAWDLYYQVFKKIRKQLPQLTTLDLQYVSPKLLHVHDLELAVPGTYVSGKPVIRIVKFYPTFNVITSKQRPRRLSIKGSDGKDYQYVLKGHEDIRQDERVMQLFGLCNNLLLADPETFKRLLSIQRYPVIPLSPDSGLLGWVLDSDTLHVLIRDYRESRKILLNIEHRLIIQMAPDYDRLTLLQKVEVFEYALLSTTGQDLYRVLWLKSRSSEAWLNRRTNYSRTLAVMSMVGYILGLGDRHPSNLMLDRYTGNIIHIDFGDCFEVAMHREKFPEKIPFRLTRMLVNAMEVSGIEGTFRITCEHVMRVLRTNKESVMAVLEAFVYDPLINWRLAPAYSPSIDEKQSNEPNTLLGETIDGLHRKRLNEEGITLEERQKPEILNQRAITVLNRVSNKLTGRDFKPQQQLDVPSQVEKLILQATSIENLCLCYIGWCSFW

These are yes or no findings as the source states them, for the method shown. In cells and extracts the contact can be indirect. Some entries that bind do so weakly or less than the wild type. Sequences can lack the tags named with a protein.

B1: GFP-tagged Sin1 (TORC2 regulatory subunit) (protein, UniProt Q9P7Y9 1-665)
chain: MELTREKVLLLTFLRMQYSHILPDSIENRVISTEAPEWELDKSLQDLLIHDYDYSKTSFSSSPPIVANDTVSNVRKPSDTKQVNGAGGQVNHSRAEDSDYATSDLSESSDVGDDDNSCIFSFSKVPMQKDVASIKEEERLDPKISTLNNIDAIANLKLTNMVESSQAVNLTSSKQSSINQQSSVSTDYDDLRSISEESFHLSQGEIPLTFPMNSSLTDTEADAVVAVDALFPGKQRGTHNTVNKARSVSNAKAPTSALRALLEHKENSSQNGPLAENFATFSGHAESNALRLNIYFPSSESPSKPLFVELRKNVLVSEAIGYILLQYVNQQLVPPIEDEAQNPNYWNLRIVEDDGELDEDFPALDRVGPLSKFGFDAFALVKATPAQIKENQAAYPFKSKHPTSIPEANNKTHIRHTSSTSSQSQKQAQDVKDTLNTSHVVQVRLPPYGDNARFCNIEISKTTRLAMVLNQVCWMKQLERFKYTLRVAGSDTVLPLDKTFSSLDGNPTLELVKKKVRDKKGSTQQLPTSSPQNSVYGSIKKDAQSSTYNATDIMSSNTYQEFLVWKRQPVSFMGRHERLLAIDGEYVHIMPSESKNIFETPKTSSIHAGSIILCKQSKKSPCNFKMIVSKNRETKRYDFEVLSALEAAIIVSRIRALMNTVKKIN
Consider B1, for which the binding entry is “no binding”.

B2: GFP-tagged Bit61 (TORC2 regulatory subunit) (protein, UniProt O74547 1-422)
chain: MVGRGSFSSTSSASSINWIPKNTKTSIESVSNTISLSENGQNQDLETVTTKESNVGDSDTTENIKSPFNGQWPFSRRSSQSSSHPVFEETHWSKHSKRPGKLNVLTPTSPSNVNAEVQSISTKTQLSLLNLSPHKHKKPKDGLDLSALQKTLNGSRNFLRGRRDAGGIFGASIPQSLVTNQIINGFGAASLAFAKLGKVRSPLEGRFNLVPISADETWLIVESEVCSLYSGEALHYSLEDLNGILILHLQALIRDTKMNEFVGHLETLFRKATKCLSDSLSPVPEELFLNRIIETWLFFFSSVLPYVQGVFLPIKTKLFDEQEKTQLPYEVNEFCSTNREKLNVHRLALMTFRDYMVLPIANRIQICIGRAESAENALDNAGEVFARLFQILSLLASVRTNDSKEQEITNLATKVRCLLIAS
As for B2, the binding result was “no binding”.

B3: GFP-tagged Mip1 (TORC1 regulatory subunit, Raptor homologue) (protein, UniProt P87141 1-1313)
chain: MNDRISEVSGSSRARRSVLSYGTTETGSDRYTENSNIATENGVDTASSMIDGIQSGFPQPRHGFEEEYNNAEYINMLEQVFYMYYTDKRHRGVISKKNAEPTETIHDWRMRERLKTVSAALLVCLNIGVDPPDVIKPNPAAKYECWIDPFSLPASKALEAIGKNLQQQYETLSMRTRYRHYLDPAIEEVKKLCIGQRRNAKEERILFHYNGHGVPMPTASGEIWVFNKNYTQYIPVSLYDLQSWLGAPCIYVYDCSAAGNIIVNFNRFAEQRDKEALRIAKQNPNVLAMPSHTSCIQLAACGPKETLPMNPDLPADLFTSCLTSPIEISVRWYVLQNPFPNKLNLNMLLKIPGRLQDRRTPLGELNWIFTAITDTIAWNVFPKHLFRRLFRQDLMVAALFRNFLLAERIMLVHSCHPQSSPELPPTHDHPMWNSWDLAIDNCLSQLPDMLDAESKGIAYEYKHSTFFSEQLTAFEVWLSQGLISRKPPDQLPLVLQVLLSQVHRLRALILLSKFLDLGVWAVDLALSIGIFPYVLKLLQSPAIELKPVLVFIWARILAVDDSCQADLLKDNGYGYFVQILNPNSSIFPSSNISEHRAMCAFILSVFCRGFPQGQLACLNPQVLSHCLSHLNSPDSLLRQWACLCISQLWENYSEAKWSGTRDNAHVKLAEIIVDSVPEVRASVLTAFTTFLGFPEKTEEVVAVETYIAIAALAALSDASPLVRHELVIFLSHFVVNYKKQLMVVAYESSLADILEKKNHNSISASTIYETVWQAVLVLAADPSIEISLAAEAIINYVYQSMLNSELRESFLAFLLQHLPALHKASLSKDTDTNSVTSDPKPHPFVPSVSENKILNRSFSLTRSLKGLALSLAGSDRASELLSLNGENKPAESNLNHLTSAKVPGPPAFNELEYQSELDMPLTSYLFDWSRKYFTEPQMRPNEDDEPGSICYNQRLWRRNRNEKLIYRTRPLAEYSTNGRWNQQLMTFNNTIAPRKLMFHQFEDQLITLGDKDIIQVWDWRRNRCLNSFKTSASATTNVTDMQLLNEDDVALLMTGSSDGTIKLYRDYENEKVELVTSWNSLSDLVFGDRNASLLMSWQQNCGHLLVAGDVRVIRIWDASKEICYANLPVRSSNSITSLTSDLVGCNIIVAGFSDGVLRVYDKRLPARDSLTDVWKEHSSEIVNVEMQSSGMRELISASSDGEVKLWDIRMNHSLQTFSTDNSGLTSLTVHSHAPVYATGSSNQSIKIWDTLGQNINTFRENPRFLNQPKPSSLMCLKFHPHHLLLACGDNTDSRVNLYSCTKNEIHTDSPNEF
Consider B3, for which the binding entry was “binds”.

B4: GFP-tagged Ste20 (TORC2 regulatory subunit, Rictor homologue) (protein, UniProt Q09743 1-1309)
chain: MKPVRRGQTDTALDISSHAKTNGDFIKKMNTTDSKRLKLLEDLKGKLEVECKIRDGAETLLQVFDTNFKKETKERKEMLKKKCTDELESSKKKIEELVSSIESFQGENGEAKTGSTSLTRSASATVSRKSSLQEKYSTRFSYKAGCSDSCSVTVSGTGELIGPTRNAHSNLTPTVIQRIDFENVNEKNNSSSEDTQPNGKRPSSLQSNFSQFPLNPWLDNIYKACLEGSMKDVIDSSNNLCEYLHEHSDPAYAKNFSLITPTILSMLELNVSEVTASVYRLLRHLFLDATAFSCCQMLNLPWILSKSLLSGTDAYQIEREQAFRLIRTLYFLSSTEGHEDYLSGITRTIISICEHVSDVSRGIAVETLIELMIIRPKILFKANGLRVLMISLIDGSISENLAASAALALVYLLDDPESACYVNLPYDIGILLSPFTSSSSRDTFNSSEEQSEQAAKAMKSSAKVASVLLNSWSGLLALSTNDFQALRSIVDTLRVPSFAPRSDVIDLFFLIFQVEYSSWSESFLAGKRLTVVKNQAVSNDDNINMVNIPDGSNKKYMSLRQHFTAVLLFIFLELGLVESIVCMIRASDDPSASRKATYLLGEVLRLSDELLPIHLGAKIQSLPSLFNMASQFTAEDRFVATSVLQSIESLNRVKFHSATQPFSQTTSLLFKEQKTDGSFRGQRQVEHVKLKMGMQIDDSHFRSMLAETNVLATKNYQKWRWDTLVQIMEGPLLSPKRIDETLRTTKFMRRLLAFYKPFSNRFSSIQNTKPNQKFIKVGCLVFRTLLANPEGVKYLSESKVIKQIAESLSQIDGYSEQVSEPIFSNSRLQKTLTHGYFPMLKVLSSQKEGHAIMERWRIFTTLYHLTELRNRDDLIIIFLTNLDYRLEGHTRIIFSKALNTGQQAVRLTATKHLAALINSESANDNLNHWAISLLIFQLYDPCLEVCKTAVKVLNEVCARNENLLAQVVQLQPSLAHLGEIGSPLLLRFLATTVGFHYLSEINFIEHELDNWYHHRNIDYVDLLEQNFFLSFVSNLKIIDKKNNEPDENILPLHFYGELVKSPQGCEVLESSGHFESFMGTLVEFYDKPLGNEAIRQLKSALWAIGNIGKTDQGITFLINHDTIPLIVKYAENSLIPTVRGTAYFVLGLISRTSKGVEILESLHWYSLMSLMGTSQGICIPRHAGQVLSTPRRNVEFVNERVPTPEFSSLLSSLTNSEREVIRLVSNLSNHVLTNESARQLTKIRSKNAKVFSSKRLVKACMTILGKFHYRVQIQQFVFELFPYSVLLSSSTSQDLNESPSRPNNLSISA
Regarding B4, the binding result is “no binding”.

B5: GFP-tagged Tco89 (TORC1 regulatory subunit) (protein, UniProt O74428 1-451)
chain: MERPSLSRRTSSSTVSTDGEGVYSRSTKERKRNFIVNSRLKRGGGHVRVNRSGRLGSVTMRPSALTRAHSQNPNSSLVNNSSAVSHLTKQRSLNDLHELNGPKHVAKNGLIPLTQRKPNCVWDDAPVDNDSTAGNLDSDSALPTPSVTTNEAADSSRASSPVTRVVAVHDNKKKIINSNISNAPPFNNTDVQASARPPAAGQDDSAADASTTKSSPVHNEVMAEPLPHSNNREVTQATNQPKWQIHSGSDIASEPPTLSRGNSLSLLANRKVPSTNVKKSQAELYDLGSSTSRTQQKLLIQRASSKFDIVEDDMDTNPSKRFSNPHTKHIMDLVRTQYRNVLRTRELIPEFLEKIRSSYSNNQNFDSQNAFNTSAAGTAGTREETISNGQNGIVASAETSKKDDGVQSASLNASMSARSHARQRSIHVPKTRKDTDYESIHQKLLQLWSQG
In the case of B5, the binding result is recorded as “binds”.
